From the supplement of paper PMC4604168 (melanoma cell lines)
Some of the results follow. Repeats are few or missing, and single values can be far off.

What was measured:
Assay in all cases: cell count relative to DMSO control; melanoma cells; higher = more viable cells
Settings in all cases: library dose: low library concentration; 72 h
[1] = system: MZ2-MEL
[2] = system: MeWo
[3] = system: RPMI7951
[4] = system: RVH-421
[5] = system: SkMel28
[6] = system: SkMel30
[7] = system: SkMel5
[8] = system: UACC257
[9] = system: UACC62
[10] = system: WM115
[11] = system: WM1716
[12] = system: WM1745
[13] = system: WM3526
[14] = system: WM3619
[15] = system: WM451Lu
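Also: cell number obtained by counting DAPI-stained nuclei in high-throughput microscope images with image analysis software, screen run in 1,536-well plates.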

| Structure (SMILES) | cell count [1] | cell count [2] | cell count [3] | cell count [4] | cell count [5] | cell count [6] | cell count [7] | cell count [8] | cell count [9] | cell count [10] | cell count [11] | cell count [12] | cell count [13] | cell count [14] | cell count [15] |
| --- | --- | --- | --- | --- | --- | --- | --- | --- | --- | --- | --- | --- | --- | --- | --- |
| COc1cc(Nc2ncc(F)c(Nc3ccc4c(n3)NC(=O)C(C)(C)O4)n2)cc(OC)c1OC [Tamatinib] + Oc1nc(-c2ccc(C(F)(F)F)cc2)nc2c1CSCC2 [XAV939] (first compound 0.4 µM, partner dose 2 µM) | 93.3% | 88.5% | 77.7% | 89% | 92.3% | 104% | 78.5% | 74.6% | 86.5% | 81.5% | 62.9% | 59.9% | 99.2% | 84.1% | 92% |
| COc1cc(Nc2ncc(F)c(Nc3ccc4c(n3)NC(=O)C(C)(C)O4)n2)cc(OC)c1OC [Tamatinib] + COc1ccc2c(c1)CCC1C2CCC2(C)C(NCCCCCCN3C(=O)C=CC3=O)CCC12 [U73122] (first compound 0.4 µM, partner dose 0.4 µM) | 92.1% | 90.5% | 94.3% | 79.8% | 79.8% | 111% | 98.3% | 66.4% | 96.1% | 90.6% | 81.2% | 66% | 88.3% | 110% | 101% |
| COc1cc(Nc2ncc(F)c(Nc3ccc4c(n3)NC(=O)C(C)(C)O4)n2)cc(OC)c1OC [Tamatinib] + O=S(=O)(c1ccccc1)N(CC(F)(F)F)c1ccc(C(O)(C(F)(F)F)C(F)(F)F)cc1 [T0901317] (first compound 0.4 µM, partner dose 1.4 µM) | 85.3% | 78.6% | 70.3% | 98.8% | 72.7% | 81.7% | 91.1% | 62% | 88% | 77.3% | 75.9% | 62.2% | 67.8% | 81.2% | 89.9% |
| CC1(C)NC(=O)N(c2ccc([N+](=O)[O-])c(C(F)(F)F)c2)C1=O [nilutamide] + Cc1cc([N+](=O)[O-])ccc1NS(=O)(=O)c1cc(Cl)ccc1Cl [FH535] (first compound 1 µM, partner dose 1 µM) | 93.6% | 95.6% | 123% | 85.3% | 84.6% | 110% | 81.2% | 97.9% | 90.5% | 94.6% | 92.6% | 91.3% | 105% | 69.2% | 98.2% |
| C[C@@H]1CCN(C(=O)CC#N)C[C@@H]1N(C)c1ncnc2[nH]ccc12 + COc1ccc2c(c1)CCC1C2CCC2(C)C(NCCCCCCN3C(=O)C=CC3=O)CCC12 [U73122] (first compound 1 µM, partner dose 0.4 µM) | 103% | 91.2% | 97.4% | 100% | 89.5% | 97.2% | 91.9% | 98.8% | 89.9% | 91.1% | 86.9% | 67.2% | 106% | 113% | 51.9% |
| C[C@@H]1CCN(C(=O)CC#N)C[C@@H]1N(C)c1ncnc2[nH]ccc12 + Cc1cc([N+](=O)[O-])ccc1NS(=O)(=O)c1cc(Cl)ccc1Cl [FH535] (first compound 1 µM, partner dose 1 µM) | 93.8% | 93.2% | 119% | 103% | 108% | 106% | 98% | 77.8% | 94.5% | 95% | 98.9% | 106% | 107% | 101% | 109% |
| COc1cc(Nc2ncc(F)c(Nc3ccc4c(n3)NC(=O)C(C)(C)O4)n2)cc(OC)c1OC [Tamatinib] + CC(C)CCN1c2nc(Nc3cc(F)c(O)c(F)c3)ncc2N(C)C(=O)C1C [BID1870] (first compound 0.4 µM, partner dose 0.2 µM) | 95.8% | 91.7% | 89.7% | 117% | 88.3% | 85.4% | 89.5% | 71% | 70.4% | 74.1% | 94.2% | 68% | 81.8% | 86% | 88.7% |
| O=C(Nc1cccc(Cl)c1)Nc1ncc(CCNc2ncnc3ccsc23)s1 + COc1ccc2c(c1)CCC1C2CCC2(C)C(NCCCCCCN3C(=O)C=CC3=O)CCC12 [U73122] (first compound 0.0008 µM, partner dose 0.4 µM) | 94.5% | 101% | 92% | 104% | 97.7% | 108% | 96.9% | 95.4% | 106% | 81.2% | 91% | 87.6% | 108% | 96.5% | 74.2% |
| O=C(Nc1cccc(Cl)c1)Nc1ncc(CCNc2ncnc3ccsc23)s1 + c1cc(-c2cnn3cc(-c4ccc(OCCN5CCCCC5)cc4)cnc23)ccn1 [Dorsomorphin] (first compound 0.0008 µM, partner dose 0.4 µM) | 98.8% | 94.7% | 99% | 85.2% | 96.2% | 99.4% | 91.5% | 91.1% | 86.8% | 76.7% | 113% | 91.9% | 76.4% | 102% | 106% |
| COc1cc(Nc2ncc(F)c(Nc3ccc4c(n3)NC(=O)C(C)(C)O4)n2)cc(OC)c1OC [Tamatinib] + CCN(CC)CCCCNc1ncc2cc(-c3cc(OC)cc(OC)c3)c(NC(=O)NC(C)(C)C)nc2n1 [PD173074] (first compound 0.4 µM, partner dose 0.1 µM) | 94.2% | 95.3% | 75.2% | 63.9% | 87.9% | 87.6% | 86.6% | 67.5% | 82.5% | 97.3% | 91.7% | 63.7% | 79.4% | 81.3% | 124% |
| CC1(C)NC(=O)N(c2ccc([N+](=O)[O-])c(C(F)(F)F)c2)C1=O [nilutamide] + O=C(Nc1ccccc1)c1cc([N+](=O)[O-])ccc1Cl [GW9662] (first compound 1 µM, partner dose 2 µM) | 93.5% | 98.7% | 106% | 88.1% | 75.4% | 123% | 93.9% | 91.6% | 86.8% | 102% | 94.9% | 81.3% | 118% | 94% | 112% |
| CC1(C)NC(=O)N(c2ccc([N+](=O)[O-])c(C(F)(F)F)c2)C1=O [nilutamide] + CC(C)CCN1c2nc(Nc3cc(F)c(O)c(F)c3)ncc2N(C)C(=O)C1C [BID1870] (first compound 1 µM, partner dose 0.2 µM) | 101% | 93.8% | 99.9% | 114% | 89.4% | 89% | 112% | 105% | 69.7% | 101% | 87.9% | 94% | 108% | 121% | 106% |
| O=C(O)c1ccc(-c2c[nH]c3ncc(-c4ccccc4)cc23)cc1C1CCCC1 + Cn1cc(/C=C2\C(=O)Nc3cccnc32)c2ccccc21 [GW441756] (first compound 0.16 µM, partner dose 0.4 µM) | 94.5% | 82% | 112% | 108% | 86.3% | 101% | 81.2% | 91.5% | 94.1% | 95% | 93.7% | 102% | 96.9% | 111% | 102% |
| C[C@@H]1CCN(C(=O)CC#N)C[C@@H]1N(C)c1ncnc2[nH]ccc12 + COc1cc(N2CCC(N3CCN(C)CC3)CC2)ccc1Nc1ncc(Cl)c(Nc2ccccc2S(=O)(=O)C(C)C)n1 [NVP-TAE684] (first compound 1 µM, partner dose 0.08 µM) | 103% | 93% | 90.5% | 106% | 105% | 83.2% | 81.7% | 90.6% | 93.3% | 89.7% | 87.6% | 73.3% | 87.9% | 90.8% | 92.5% |
| O=C(Nc1cccc(Cl)c1)Nc1ncc(CCNc2ncnc3ccsc23)s1 + Oc1cc(-c2nc(-c3ccccc3)[nH]c2-c2ccncc2)ccc1Cl [L779450] (first compound 0.0008 µM, partner dose 0.2 µM) | 76% | 109% | 94.2% | 74.4% | 82.5% | 85.2% | 117% | 90.2% | 88.1% | 75.8% | 108% | 88.2% | 86.6% | 92.7% | 111% |
| CC1(C)NC(=O)N(c2ccc([N+](=O)[O-])c(C(F)(F)F)c2)C1=O [nilutamide] + COc1cc2ncnc(Nc3ccc(Oc4ccccc4)cc3)c2cc1OC [SrcI1] (first compound 1 µM, partner dose 2 µM) | 93.4% | 119% | 94.1% | 98.8% | 86.2% | 109% | 102% | 101% | 121% | 104% | 133% | 95.2% | 92.8% | 114% | 130% |
| O=C(O)c1ccc(-c2c[nH]c3ncc(-c4ccccc4)cc23)cc1C1CCCC1 + O=C(O)C(=O)Nc1sc2c(c1C(=O)O)CCNC2 [TCS401] (first compound 0.16 µM, partner dose 1.66667 µM) | 95.3% | 95.5% | 88.2% | 96.5% | 94.4% | 109% | 95.5% | 78.1% | 86.1% | 98.2% | 84.4% | 93.6% | 94.9% | 91.5% | 147% |
| O=C(Nc1cccc(Cl)c1)Nc1ncc(CCNc2ncnc3ccsc23)s1 + O=C1NC(=O)/C(=C/c2ccc(-c3ccc(F)cc3O)o2)S1 [AS252424] (first compound 0.0008 µM, partner dose 1 µM) | 104% | 101% | 102% | 104% | 78.4% | 113% | 107% | 98.9% | 97.5% | 74.5% | 116% | 127% | 83.4% | 98.9% | 116% |
| CC1(C)NC(=O)N(c2ccc([N+](=O)[O-])c(C(F)(F)F)c2)C1=O [nilutamide] + COc1ccc(-c2ccc3c(N4CCOCC4)nc(N4C[C@@H](C)O[C@@H](C)C4)nc3n2)cc1CO [KU0063794] (first compound 1 µM, partner dose 0.02 µM) | 96.9% | 109% | 99.1% | 94.9% | 91.2% | 105% | 108% | 122% | 111% | 111% | 103% | 98% | 103% | 110% | 86.2% |
